According to patent publication US11773157B2, “Compositions and methods for treating and preventing Staphylococcus aureus infections” (priority 2014, dated 2023):

Test system: differentiated HL-60 cells
Experiment: Phagocytosis of pH-rodo-green labeled S. aureus by differentiated HL-60 cells (FACS)
Assay type: cell-based
Conditions: co-incubation with pH-rodo-green labeled S. aureus; MABp1 negative control; FIG. 6
Experimental: The resulting fluorescence of the HL-60 cells was determined using fluorescence-assisted cell sorting (FACS).
An additional set of experiments was performed to test the ability of additional anti-SpA Abs to promote phagocytosis of SA by differentiated HL-60 cells.

B1: PA7.2-G3: human IgG3 anti-SpA mAb; heavy chain SEQ ID NO: 26, light chain SEQ ID NO: 31 (antibody, listed as Homo sapiens)
heavy: EVQLVESRGGLVQPGGSLRLSCAASGFTFSNYAMSWVRQAPGKGLEWVSTISGSDGGTYYADSVKGRFTISRDNSGNTVYLQMNSLREDDTAVYYCARVGLSAPVTFFDFWGQGTLVTVSSASTKGPSVFPLAPCSRSTSGGTAALGCLVKDYFPEPVTVSWNSGALTSGVHTFPAVLQSSGLYSLSSVVTVPSSSLGTQTYTCNVNHKPSNTKVDKRVELKTPLGDTTHTCPRCPEPKSCDTPPPCPRCPEPKSCDTPPPCPRCPEPKSCDTPPPCPRCPAPELLGGPSVFLFPPKPKDTLMISRTPEVTCVVVDVSHEDPEVQFKWYVDGVEVHNAKTKPREEQYNSTFRVVSVLTVLHQDWLNGKEYKCKVSNKALPAPIEKTISKTKGQPREPQVYTLPPSREEMTKNQVSLTCLVKGFYPSDIAVEWESSGQPENNYNTTPPMLDSDGSFFLYSKLTVDKSRWQQGNIFSCSVMHEALHNRFTQKSLSLSPGK
light: [… about 100 residues …]FSFGQGTDLDLKRTVAAPSVFIFPPSDEQLKSGTASVVCLLNNFYPREAKVQWKVDNALQSGNSQESVTEQDSKDSTYSLSSTLTLSKADYEKHKVYACEVTHQGLSSPVTKSFNRGEC
modifications: PA7.2-G3 Heavy Chain; PA7.2-G3 Light Chain
opsinization and phagocytosis of S. aureus by differentiated HL-60 cells: able to promote opsinization and phagocytosis
